From PubChem BioAssay AID1645887 (National Center for Advancing Translational Sciences (NCATS), 2021)
Several values for one entry are separate records, joined by “and”; a condition that tells them apart may be missing. Equal values may be shown once. Screen size: about 16,000 compounds; about 40 (0.2%) were called active. Roughly 1% stayed inconclusive and do not appear here. The call rests on the fitted dose curve; in most records, active means well fitted activation curve with a large enough effect; inconclusive means small, poorly fitted or top-dose-only effect, or another doubt; inactive means no such curve, though single readings can be large or run the other way. Some of the results follow.

These molecules were tested against Rap guanine nucleotide exchange factor 4 (Homo sapiens) (UniProt Q8WZA2) (assay: Validation qHTS for agonist of cAMP-regulated guanine nucleotide exchange factor 4 (EPAC2)). Conditions: EPAC2 Rap1B BODIPY-GDP exchange, fluorescence; activation: active compounds read high.
Procedure, shortened: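 Signal normalized against 6.5 mM cAMP as agonist control. Mix of EPAC2 (100 nM), RAP1B-BODIPY-GDP (250 nM) and GDP (50 uM) was read kinetically at 480/540 nm, every 5 min over 30 min, after 5 min room-temperature incubation with compound.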
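Further: exchange makes BODIPY-GDP fluorescence drop when released from Rap1B; series mostly up to about 150 µM.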
On the % scale 0 is the no-effect control and ±100 the full control effect.

Chain of UniProt Q8WZA2 (Q8WZA2 whole entry, looked up): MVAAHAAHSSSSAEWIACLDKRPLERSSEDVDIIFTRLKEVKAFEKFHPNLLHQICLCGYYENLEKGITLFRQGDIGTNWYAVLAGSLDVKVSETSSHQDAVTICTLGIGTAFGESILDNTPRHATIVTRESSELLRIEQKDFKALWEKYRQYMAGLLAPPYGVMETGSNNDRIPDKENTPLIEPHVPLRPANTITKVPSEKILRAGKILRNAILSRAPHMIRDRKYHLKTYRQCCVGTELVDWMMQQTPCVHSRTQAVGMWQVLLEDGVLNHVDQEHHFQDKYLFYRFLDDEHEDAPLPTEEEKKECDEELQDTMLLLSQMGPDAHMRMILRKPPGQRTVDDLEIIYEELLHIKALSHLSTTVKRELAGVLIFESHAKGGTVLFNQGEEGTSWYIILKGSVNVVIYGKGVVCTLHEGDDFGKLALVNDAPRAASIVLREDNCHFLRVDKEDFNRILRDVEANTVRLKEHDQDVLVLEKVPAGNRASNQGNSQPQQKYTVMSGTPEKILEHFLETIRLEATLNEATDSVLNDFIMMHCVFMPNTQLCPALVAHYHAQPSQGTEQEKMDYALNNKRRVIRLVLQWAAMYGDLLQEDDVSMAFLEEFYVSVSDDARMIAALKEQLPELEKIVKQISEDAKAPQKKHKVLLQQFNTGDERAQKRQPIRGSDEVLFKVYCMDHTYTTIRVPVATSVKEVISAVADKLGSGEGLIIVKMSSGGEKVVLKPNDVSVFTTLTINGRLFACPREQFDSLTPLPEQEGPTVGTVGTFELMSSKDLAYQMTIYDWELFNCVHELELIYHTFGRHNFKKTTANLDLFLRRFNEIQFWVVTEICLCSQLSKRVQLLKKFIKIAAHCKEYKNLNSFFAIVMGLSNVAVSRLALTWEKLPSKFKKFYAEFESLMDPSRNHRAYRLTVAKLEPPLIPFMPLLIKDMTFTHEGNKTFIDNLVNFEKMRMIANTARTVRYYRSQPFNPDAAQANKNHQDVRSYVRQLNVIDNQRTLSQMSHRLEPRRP

activation, inactive:
CC1(C)Oc2ccc3ccc(=O)oc3c2CC1O (stereo not drawn) -16.1%
CC[C@@H](CO)NCCN[C@@H](CC)CO -2.14%
CCCCCCCCCCCCCC(=O)O[C@H](CC(=O)O)C[N+](C)(C)C -39.3%
O=c1cc(-c2ccccc2)oc2c1ccc1ccccc12 4.88%
CC(C)CCCC(C)C1CCC2C3CC=C4CC(=O)CC[C@@]4(C)C3CC[C@@]12C (stereo partly drawn) -16.9%
CC(CN(C)C)C(C)(O)Cc1ccc(Cl)cc1 (stereo not drawn) -17.4%
CCCN1CCC(=O)N([C@H](COc2ccccc2)c2ccccc2)CC1 -26.9%
Cn1cc(-c2nc3cnc(Oc4ccccc4)nc3n(C)c2=O)c2ccccc21 -6.11%
C[C@]1(Cn2ccnn2)[C@H](C(=O)O)N2C(=O)C[C@H]2S1(=O)=O 10.3%
CN(C)C/C=C(\c1ccc(Br)cc1)c1cccnc1 -9.15%
Cc1ccccc1-c1ccc(CN2CCc3nnc(CNC(=O)c4ccccn4)n3CC2)cc1 -18%
CN(C)C(=O)CNC(=O)Cc1ccccc1 8.69%
CN1c2ccccc2-c2ccccc2S1(=O)=O -12.6%
COc1cccc(Cn2c(=O)cnc3cnc(Oc4cccc(Cl)c4)nc32)c1 7.98%
COC(=O)C1CCCCN1Cc1ccc2c(c1)CN(Cc1cn[nH]c1-c1ccc(F)cc1)CCO2 (stereo not drawn) -0.549%
CCCN(CCc1ccccc1)C1CCc2c(O)cccc2C1 (stereo not drawn) 2.51% and -18.6%
CNc1ccnc(-c2ccccc2C(F)(F)F)n1 -9.95%
N.N.N.N.N.N.N.N.N.N.N.N.N.N.O.O.[Ru+4].[Ru+5].[Ru+5] -65.5%
CC1=CC(=O)CC(C)(C)C1(O)/C=C/C(C)=C\C(=O)O (stereo not drawn) -26.9% and -2.51%
O=C(Nc1cccc(F)c1)N1CCC2(CCNCC2)CC1 -17.6%
c1ccc(C(c2ccccc2)N2CC3(CCNCC3)C2)cc1 -10.3%
O=C(c1ccncc1)N1CCC2(CC1)CN(c1ccncc1)C2 -1.2%
CN1CC[C@@]2(CCCN(C(=O)c3cccc(F)c3)C2)C1 -13.9%
COc1cccc(Nc2ncc3nc(-c4cn(C)c5ccccc45)c(=O)n(C[C@H]4CCCO4)c3n2)c1 -15.4%
O=c1c(-c2cc(F)cc(F)c2)nc2cncnc2n1Cc1ccc(F)cc1 -5.37%
O=C(O)C[C@H]1c2cc(F)ccc2S(=O)(=O)N1Cc1ccccc1 0.235%
Cc1cc(O)c2c(O)c3c(O)cccc3cc2c1 -14%
C=CCSCC1Nc2cc(Cl)c(S(N)(=O)=O)cc2S(=O)(=O)N1 (stereo not drawn) -20%
CN1CC[C@@]2(CCCN(C(=O)c3cc(C(F)(F)F)cc(C(F)(F)F)c3)C2)C1 11.2%
COCCNc1nc(-c2ccc(N(C)C)cc2)nc2ccccc12 -6.53%
COc1ccccc1CCn1c(=O)c(-c2ccc(Cl)cc2)nc2cncnc21 1.92%
COc1ccc(CN2CCOc3ccc(CN4CCC(Oc5cccnc5)CC4)cc3C2)cc1 -25.6%
COc1ccccc1C(=O)N[C@@H]1c2ccccc2C2(CCN(Cc3nc(C(C)C)cs3)CC2)[C@H]1O -11.4%
Cc1noc(C)c1-c1cc(NCCN2CCOCC2)ncn1 -3.47%
COc1ccc(CN2CCOc3c(O)cc(-c4cc(C)c5ccc(F)cc5n4)cc3C2)c(O)c1 -16%
Cc1ccc(-n2nc(C(C)(C)C)cc2NC(=O)Nc2ccc(OCCN3CCOCC3)c3ccccc23)cc1 2.91%
O=c1c(-c2ccc(O[C@@H]3O[C@H](CO)[C@@H](O)[C@H](O)[C@H]3O)cc2)coc2cc(O)cc(O)c12 -2.38%
COC(=O)C1N2C(=O)N(C)[C@H](C(=O)OC)[C@H]2SC1(C)C (stereo partly drawn) -11.8%
NC(=O)c1cccc(N)c1 -22.6% and 11.6% and -11.6%
COCC(=O)N1CCC2(CCCN(C(=O)Nc3ccccc3)C2)CC1 -27.3%
O=C(c1cscn1)N1CCOc2ccc(CN3CCC(Oc4cccnc4)CC3)cc2C1 0.273%
CCCCC[C@H](O)/C=C/C=C\CCCCCCCC(=O)O -6.11% and -2.21%
COc1cc(=O)n2c(c1C(=O)N(C)Cc1nonc1C)CCN(C(=O)c1cc(C)ccc1C)CC2 -16.8%
CC(=O)N1CCC2(CC1)CCN(C(c1ccccc1)c1ccccc1)CC2 -17.6%
COc1ccccc1N1CCN(CCCC(=O)c2ccc(F)cc2)CC1 -6.44%
NC(=O)NS(=O)(=O)c1ccc(N)cc1 -6.9%
CN(C)CCc1cc2c(c3c1ccc1ccccc13)OCO2 -8.33%
COc1ccccc1CN1CCC2(CC1)CCN(C(=O)c1cccc(F)c1)CC2 -2.95%
O=C(O)CCCC[C@@H]1SC[C@H]2NC(=O)N[C@@H]12 -10%
Cc1cc(C(=O)NCC2CCC3(CCN(Cc4ccc(F)cc4)CC3)O2)n(C)n1 (stereo not drawn) -12.7%
CCC(CN)CC(C)CCNCC(O)CNCC(C)CC(CC)CN (stereo not drawn) -7.55%
O=C(c1cn(C2CCCN(Cc3cccc(Oc4ccccc4)c3)C2)nn1)N1CCCC1 (stereo not drawn) -7.14%
Cc1noc(C)c1-c1ccc2ncnc(Nc3ccc(F)cc3)c2c1 -13.1%
CC(C(=O)O)c1ccc(C(=O)c2ccccc2)s1 (stereo not drawn) 2.51%
O=C1CCN(Cc2ccc(-c3ccccc3)cc2)CCN1Cc1ccccn1 -2.36%
NC(CSCSCC(N)C(=O)O)C(=O)O (stereo not drawn) -5.55%
Cc1cc(C(=O)Nc2ccccc2-c2nc(CNC(=O)c3cscn3)c(C)o2)c(C)o1 -11.3%
CN(C)c1nc(-c2ccoc2)nc2ccccc12 -6.98%
Cc1ccccc1-c1nccc(NCCN2CCOCC2)n1 -29.4%
CS(=O)(=O)OCC(O)C(O)COS(C)(=O)=O (stereo not drawn) -1.39%
O=C(C[n+]1cccc2cc(Cl)ccc21)c1ccc(Br)cc1 -5.01%
O=C(c1cccc(F)c1)N1CCC2(CC1)CCN(c1ncccn1)CC2 -7.49%
CC(N)CCCP(=O)(O)O (stereo not drawn) 9.02%
CC(=O)N(CC(O)CN(C(C)=O)c1c(I)c(C(=O)NCC(O)CO)c(I)c(C(=O)NCC(O)CO)c1I)c1c(I)c(C(=O)NCC(O)CO)c(I)c(C(=O)NCC(O)CO)c1I (stereo not drawn) -25.3%
CO[C@H]1C[C@@H]2CC[C@@H](C)[C@@](O)(O2)C(=O)C(=O)N2CCCC[C@H]2C(=O)OC([C@H](C)C[C@@H]2CC[C@@H](O)[C@H](OC)C2)CC(=O)[C@H](C)/C=C(\C)[C@@H](O)[C@@H](OC)C(=O)[C@H](C)C[C@H](C)/C=C/C=C/C=C/1C (stereo partly drawn) -26.4%
CCS(=O)(=O)NCc1c(C)ncc2c1CCN(C(=O)c1ccc(F)cc1)C2 4.04%
Nc1ncnc2n[nH]c(Nc3ccc(F)cc3)c12 -19.6%
CCCCCCCCCCCCC(=O)N1CCCC[C@H]1CNC(=O)[C@@H](N)CCCCN -28.5%
CC(C)C[C@@H](CSc1ccccc1)N1CCN(CC(C)C)CCC1=O -12.9%
O=c1c(-c2ccc(Cl)cc2)nc2cnc(N3CCOCC3)nc2n1C[C@H]1CCCO1 4.27%
CC(=O)OCC(=O)[C@]1(O)C(C)CC2C3CCC4=CC(=O)C=C[C@@]4(C)[C@]3(F)C(O)C[C@@]21C (stereo partly drawn) 3.85%
Cc1c(C)n(Cc2ccccc2)c2ccc(C(=O)OCCN(C)C)cc12 3.34%
CC(=O)N1CCC2(CCCN(Cc3nccs3)C2)CC1 -2.94%
CCC(C(=O)NC(N)=O)c1ccccc1 (stereo not drawn) -4.88%
COc1ccccc1-c1nc(Nc2ccncc2)c2ccccc2n1 -26.6%
COC(=O)c1c(OCc2ccccn2)cc(=O)n2c1CCN(Cc1ccc3c(c1)CCCN3C)CC2 -12.3%
O=C(c1ccncc1)N1CCC2(CC1)CCN(c1ccccn1)CC2 -18.9%
c1ccc(CN(CC2=NCCN2)c2ccccc2)cc1 3.37% and -19.3% and -10.4%
CC1CCC(=O)N(CCC#N)CC1 (stereo not drawn) -27%
CCN(c1nc(N)c(C(=O)N=C(N)N)nc1Cl)C(C)C -19.5%
O=C1NC(CC(=O)N2CCC(n3c(C4CCC4)nc4cccnc43)CC2)c2ccccc21 (stereo not drawn) -8.07%
Clc1ccc(N2CCN(Cc3cc4ccccn4n3)CC2)cc1 -13.5%
O=C(O)C1=CCCN(CCON=C(c2ccccc2)c2ccccc2)C1 -5.62% and 5.47% and -53.4%
Cn1c(=O)c(-c2ccc(Cl)cc2)nc2cnc(N3CCOCC3)nc21 -9.57%
COCCn1c(=O)c(-c2ccc(F)cc2)nc2cnc(N3CCOCC3)nc21 -9.18%
O=P(O)(O)OP(=O)(O)OP(=O)(O)O -8.51%
CN(C)CC/C=C1/c2ccccc2COc2ccc(CC(=O)O)cc21 -8.04%
O=C(c1cnccn1)N1CCC2(CC1)CCN(c1ccncc1)CC2 -0.326%
